From article PMC2727002
No constants are given. Whether binding was seen depends on the method and setting. In cells and extracts the contact can be indirect. Some results given as binding are weak or reduced against the parent protein; the word gives no strength. Tags and fused reporters may be left off the sequences shown.

T1: Tap-tagged Rrp6 (yeast) (UniProt Q12149)
T1 sequence: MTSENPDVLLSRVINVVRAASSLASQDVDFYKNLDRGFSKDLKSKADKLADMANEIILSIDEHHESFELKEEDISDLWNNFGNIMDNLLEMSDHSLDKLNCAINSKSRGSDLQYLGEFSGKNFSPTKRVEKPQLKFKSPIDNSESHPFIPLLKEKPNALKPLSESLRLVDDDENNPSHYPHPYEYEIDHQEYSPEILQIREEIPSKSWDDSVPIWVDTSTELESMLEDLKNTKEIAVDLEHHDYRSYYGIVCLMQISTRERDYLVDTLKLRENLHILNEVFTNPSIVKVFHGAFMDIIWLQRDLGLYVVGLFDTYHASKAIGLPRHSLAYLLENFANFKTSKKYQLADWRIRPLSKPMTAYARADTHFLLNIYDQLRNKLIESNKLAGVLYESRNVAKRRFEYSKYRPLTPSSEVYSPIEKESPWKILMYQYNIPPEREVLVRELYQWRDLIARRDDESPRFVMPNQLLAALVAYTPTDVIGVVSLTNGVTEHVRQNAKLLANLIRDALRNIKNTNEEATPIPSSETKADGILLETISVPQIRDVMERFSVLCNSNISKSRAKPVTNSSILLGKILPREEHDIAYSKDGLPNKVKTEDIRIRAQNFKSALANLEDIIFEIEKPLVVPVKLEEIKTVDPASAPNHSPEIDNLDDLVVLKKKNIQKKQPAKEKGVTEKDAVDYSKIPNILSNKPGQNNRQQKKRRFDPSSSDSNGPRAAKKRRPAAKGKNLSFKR

T2: Tap-tagged Rrp41 (yeast) (UniProt P46948)
T2 sequence: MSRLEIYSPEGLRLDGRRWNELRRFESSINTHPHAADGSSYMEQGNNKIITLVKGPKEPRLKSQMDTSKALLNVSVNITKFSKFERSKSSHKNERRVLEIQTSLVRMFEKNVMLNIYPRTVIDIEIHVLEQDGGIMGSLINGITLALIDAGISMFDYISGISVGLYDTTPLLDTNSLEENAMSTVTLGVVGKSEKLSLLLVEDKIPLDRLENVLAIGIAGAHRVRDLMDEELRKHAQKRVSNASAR

T3: Tap-tagged Mtr4 (yeast) (UniProt P47047)
T3 sequence: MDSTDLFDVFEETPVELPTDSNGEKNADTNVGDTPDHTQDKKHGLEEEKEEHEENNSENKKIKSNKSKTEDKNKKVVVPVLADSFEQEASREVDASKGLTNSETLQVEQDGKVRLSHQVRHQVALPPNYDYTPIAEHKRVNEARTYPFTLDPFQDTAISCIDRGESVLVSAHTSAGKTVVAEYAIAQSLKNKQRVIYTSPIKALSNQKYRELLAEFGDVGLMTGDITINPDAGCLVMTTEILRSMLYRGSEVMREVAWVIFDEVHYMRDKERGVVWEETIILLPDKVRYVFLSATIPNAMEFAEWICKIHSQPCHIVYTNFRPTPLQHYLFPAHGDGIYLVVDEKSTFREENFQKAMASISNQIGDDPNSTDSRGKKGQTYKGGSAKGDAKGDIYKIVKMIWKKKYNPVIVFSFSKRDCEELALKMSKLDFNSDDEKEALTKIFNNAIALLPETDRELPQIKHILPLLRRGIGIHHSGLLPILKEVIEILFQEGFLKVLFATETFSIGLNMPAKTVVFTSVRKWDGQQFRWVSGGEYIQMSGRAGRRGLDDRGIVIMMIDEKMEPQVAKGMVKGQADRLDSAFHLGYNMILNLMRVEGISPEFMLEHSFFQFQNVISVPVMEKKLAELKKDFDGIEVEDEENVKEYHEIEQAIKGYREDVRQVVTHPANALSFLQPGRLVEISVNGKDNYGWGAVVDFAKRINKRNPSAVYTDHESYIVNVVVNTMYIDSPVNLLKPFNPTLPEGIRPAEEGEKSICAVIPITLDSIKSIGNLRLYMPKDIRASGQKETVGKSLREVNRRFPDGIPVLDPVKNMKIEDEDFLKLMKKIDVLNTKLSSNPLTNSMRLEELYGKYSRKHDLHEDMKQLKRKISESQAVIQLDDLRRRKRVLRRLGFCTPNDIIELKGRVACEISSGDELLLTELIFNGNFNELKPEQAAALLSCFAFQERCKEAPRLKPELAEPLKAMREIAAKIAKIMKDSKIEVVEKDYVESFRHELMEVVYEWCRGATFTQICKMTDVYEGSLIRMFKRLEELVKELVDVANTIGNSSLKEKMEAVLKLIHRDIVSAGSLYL

B1: Rrp4 (protein, UniProt P38792 1-359)
chain: MSEVITITKRNGAFQNSSNLSYNNTGISDDENDEEDIYMHDVNSASKSESDSQIVTPGELVTDDPIWMRGHGTYFLDNMTYSSVAGTVSRVNRLLSVIPLKGRYAPETGDHVVGRIAEVGNKRWKVDIGGKQHAVLMLGSVNLPGGILRRKSESDELQMRSFLKEGDLLNAEVQSLFQDGSASLHTRSLKYGKLRNGMFCQVPSSLIVRAKNHTHNLPGNITVVLGVNGYIWLRKTSQMDLARDTPSANNSSSIKSTGPTGAVSLNPSITRLEEESSWQIYSDENDPSISNNIRQAICRYANVIKALAFCEIGITQQRIVSAYEASMVYSNVGELIEKNVMESIGSDILTAEKMRGNGN
B2: Rrp43 (protein, UniProt P25359 1-394)
chain: MAESTTLETIEIHPITFPPEVLARISPELSLQRHLSLGIRPCLRKYEEFRDVAIENNTLSRYADAGNIDTKNNILGSNVLKSGKTIVITSITGGIIEETSAAIKDLDDFGEEELFEVTKEEDIIANYASVYPVVEVERGRVGACTDEEMTISQKLHDSILHSRILPKKALKVKAGVRSANEDGTFSVLYPDELEDDTLNETNLKMKRKWSYVLYAKIVVLSRTGPVFDLCWNSLMYALQSVKLPRAFIDERASDLRMTIRTRGRSATIRETYEIICDQTKSVPLMINAKNIAFASNYGIVELDPECQLQNSDNSEEEEVDIDMDKLNTVLIADLDTEAEETSIHSTISILAAPSGNYKQLTLVGGGAKITPEMIKRSLLLSRVRADDLSTRFNI
B3: Ccr4 (protein, UniProt P31384 1-837)
chain: MNDPSLLGYPNVGPQQQQQQQQQQHAGLLGKGTPNALQQQLHMNQLTGIPPPGLMNNSDVHTSSNNNSRQLLDQLANGNANMLNMNMDNNNNNNNNNNNNNNNGGGSGVMMNASTAAVNSIGMVPTVGTPVNINVNASNPLLHPHLDDPSLLNNPIWKLQLHLAAVSAQSLGQPNIYARQNAMKKYLATQQAQQAQQQAQQQAQQQVPGPFGPGPQAAPPALQPTDFQQSHIAEASKSLVDCTKQALMEMADTLTDSKTAKKQQPTGDSTPSGTATNSAVSTPLTPKIELFANGKDEANQALLQHKKLSQYSIDEDDDIENRMVMPKDSKYDDQLWHALDLSNLQIFNISANIFKYDFLTRLYLNGNSLTELPAEIKNLSNLRVLDLSHNRLTSLPAELGSCFQLKYFYFFDNMVTTLPWEFGNLCNLQFLGVEGNPLEKQFLKILTEKSVTGLIFYLRDNRPEIPLPHERRFIEINTDGEPQREYDSLQQSTEHLATDLAKRTFTVLSYNTLCQHYATPKMYRYTPSWALSWDYRRNKLKEQILSYDSDLLCLQEVESKTFEEYWVPLLDKHGYTGIFHAKARAKTMHSKDSKKVDGCCIFFKRDQFKLITKDAMDFSGAWMKHKKFQRTEDYLNRAMNKDNVALFLKLQHIPSGDTIWAVTTHLHWDPKFNDVKTFQVGVLLDHLETLLKEETSHNFRQDIKKFPVLICGDFNSYINSAVYELINTGRVQIHQEGNGRDFGYMSEKNFSHNLALKSSYNCIGELPFTNFTPSFTDVIDYIWFSTHALRVRGLLGEVDPEYVSKFIGFPNDKFPSDHIPLLARFEFMKTNTGSKKV
B4: Caf1 (protein, UniProt P39008 1-433)
chain: MQSMNVQPRVLAVGGEQFFSQRQASEQHQQQNMGPQVYSPKVNRARMFPQGMPVNTINGSVNQEMNNAYLLKQKNEPLLTQQQQQQQQQQQPFNIGTPVSVASLPPGLNVLQQQQQQQQQQQQQQQGVGLNRPLASQLPKHLTNQSMPPIFLPPPNYLFVRDVWKSNLYSEFAVIRQLVSQYNHVSISTEFVGTLARPIGTFRSKVDYHYQTMRANVDFLNPIQLGLSLSDANGNKPDNGPSTWQFNFEFDPKKEIMSTESLELLRKSGINFEKHENLGIDVFEFSQLLMDSGLMMDDSVTWITYHAAYDLGFLINILMNDSMPNNKEDFEWWVHQYMPNFYDLNLVYKIIQEFKNPQLQQSSQQQQQQQYSLTTLADELGLPRFSIFTTTGGQSLLMLLSFCQLSKLSMHKFPNGTDFAKYQGVIYGIDGDQ

How the values were obtained:
Tap-tagged Rrp6 (yeast) = target: T1, Tap-tagged Rrp6 (yeast); assay: co-IP; single affinity step: extracts (60 mg or 2 g) of wild-type and ccr4-not mutant strains (other than caf40Δ) expressing Tap-tagged Rrp6 incubated with IgG beads, eluted by TEV cleavage; western blot with antibodies against CBP, Mtr4, Rrp43, Rrp4
Tap-tagged Rrp41 (yeast) = target: T2, Tap-tagged Rrp41 (yeast); assay: co-IP; tandem affinity purification of Tap-tagged Rrp41 from 2 g of wild-type total extract treated with RNAse A (for Rrp4 and Rrp43: treated or not); eluate blotted with antibodies against CBP, Rrp4, Rrp43 and Not5
Tap-tagged Mtr4 (yeast) = target: T3, Tap-tagged Mtr4 (yeast); assay: co-IP; Tap-tagged Mtr4 or Tap-tagged Air1, polyclonal antibodies against the Ccr4-Not complex subunits; data not shown

| Binder | binding (Tap-tagged Rrp6 (yeast)) | binding (Tap-tagged Rrp41 (yeast)) | binding (Tap-tagged Mtr4 (yeast)) |
| --- | --- | --- | --- |
| B1 | binds | binds |  |
| B2 | binds | binds |  |
| B3 |  |  | binds |
| B4 |  |  | binds |
